Source: PubChem BioAssay AID504706 (National Center for Advancing Translational Sciences (NCATS), 2011)
The whole screen tested about 320,000 compounds, of which about 200 (0.062%) were called active. Inconclusive means that the source gave no clear call. Such entries were picked first, then a sample of the others. Calls come from the whole dose curve; as a rule, active = well fitted activation curve with a large enough effect; inconclusive = small, poorly fitted or top-dose-only effect; inactive = no such curve, though single readings can be large or run the other way. No potency is given beside an inconclusive call; the fits are too rough.

Assay: qHTS assay for re-activators of p53 using a Luc reporter; note: nearly all actives have a fitted effect of over 45% in size
Settings: H1299 p53-A138V BP100-luciferase reporter, luminescence, 24 h; series mostly up to 92.2 µM
In short: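 p53-null H1299 cells stably carrying temperature-sensitive p53-A138V and a BP100-luciferase reporter were pinned with compounds (4-point, 1:5 series) and held 24 hrs at 37 deg C. Luminescence was read 10 min after detection reagent.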
Potency is the fitted concentration of half-maximal effect; tags give direction and shape of the fitted curve.

SMILES	Potency
COc1ccc(/C=C/C(=O)C2C(=O)C=C(C)OC2=O)cc1O (centres undefined)	inconclusive [activator, full curve, poor fit]
N=C1CCCN1CC(=O)c1ccc(Br)cc1	inconclusive [activator, full curve, poor fit]
Cc1cc(NC(=O)C2COc3ccccc3O2)no1 (centres undefined)	inconclusive [activator, full curve, poor fit]
O=[N+]([O-])c1cccc(-n2nnnc2CN2CCCCCC2)c1	inconclusive [activator, partial curve, poor fit]
Cc1ccc(Nc2ncccc2C(N)=O)cc1[N+](=O)[O-]	inconclusive [activator, full curve, poor fit]
N/C(=N/OCc1cccc([N+](=O)[O-])c1)c1nonc1N	inactive
CC(Oc1ccccc1)C(=O)Nc1nnc(S(=O)(=O)N2CCCCC2)s1 (centres undefined)	inactive
O=C(c1cc2cc3ccc(Cl)cc3nc2o1)N1CCCCCC1	inconclusive [activator, partial curve, poor fit]
O=C(CCCN1C(=O)/C(=C/c2cccs2)SC1=S)Nc1cccc(O)c1	inconclusive [activator, single point]
O=C(Cc1cccs1)N/N=C/C=C\c1ccco1	active: 14.1 µM
O=C(N/N=C/c1ccco1)c1ccc(Br)o1	inactive
CCOC(=O)Cc1cc(=O)n2[nH]cc(-c3ccc(Cl)cc3)c2n1	inactive
COc1ccccc1-[n+]1c(C)cc(/C=C2\Sc3ccccc3N2C)cc1C	inconclusive [activator, single point]
Cc1nnc(NC(=O)c2nc(S(=O)(=O)Cc3ccccc3)ncc2Cl)s1	inactive
COC(=O)NNC(=O)c1ccccc1OC	inactive
CCCOc1cccc(C(=O)Nc2ccc(Br)cc2F)c1	inconclusive [activator, partial curve, poor fit]
COc1ccccc1CN1CC(C(=O)NC2CCOCC2)CCC1=O (centres undefined)	inconclusive [activator, single point]
CC(Oc1ccc(C(C)(C)C)cc1)C(=O)NC1CC(C)(C)NC(C)(C)C1 (centres undefined)	inconclusive [activator, single point]
O=C(/C=C/c1ccco1)Nc1ccc2nn(-c3ccccc3)nc2c1	inconclusive [activator, partial curve, poor fit]
CC[C@]12c3[nH]c4cc(-c5ccco5)ccc4c3CCN1C(=O)[C@@H](CC(=O)NCCCOC)C[C@@H]2C(=O)N1CCN(C(=O)c2ccco2)CC1	inactive
CN(CC(=O)Nc1ccccc1C(=O)NC1CC1)Cc1ccc(Cl)s1	inactive
COC(=O)c1sccc1NC(=O)Nc1ccc(OC)cc1	inconclusive [activator, single point]
Cc1cc(=O)n2c3ccccc3n(CC(O)CN3CCCCC3)c2c1C#N (centres undefined)	inactive
Cc1nc2sc3c(c2c(=O)[nH]1)CCC3	inconclusive [activator, single point]
CSc1ccccc1OCc1cc(C(=O)N2CCCC2c2nonc2C)no1 (centres undefined)	inconclusive [activator, partial curve, poor fit]

SMILES	Potency
O=S(=O)(NCCc1ccccn1)c1cc(Cl)cc(Cl)c1O	inconclusive [activator, single point]
CNC(=S)N1N=C2c3ccccc3CCC2C1c1ccccc1Cl (centres undefined)	inactive
Cc1cc(C)n2cc(CSc3nc4ccccc4[nH]3)nc2n1	inconclusive [activator, single point]
Fc1c(F)c(F)c(CSc2nc3ccccc3[nH]2)c(F)c1F	inconclusive [activator, full curve, poor fit]
C/C(=N/NC(=O)c1ccoc1C)c1cccc(NC(=O)C2CC2)c1	inconclusive [activator, partial curve, poor fit]
Cc1ccc(NNC(=S)Nc2ccc(C(C)C)cc2)c(C)c1	inconclusive [activator, full curve]
O=C(Nc1ccc(Cl)cc1)N(C1=NCCC1)c1ccc(OC(F)F)cc1	inconclusive [activator, partial curve, poor fit]
COc1cc(/C=N/n2cnnc2)ccc1OS(=O)(=O)c1ccccc1[N+](=O)[O-]	inactive
O=C(Nc1nccs1)c1cc(-c2ccccc2)nc2ccccc12	inactive
O=C(Cc1ccccc1)NN1CCCCC1	inactive
CCCc1nc2oc3ccccc3c(=O)c2c(=O)n1-c1ccc(C)cc1	inconclusive [activator, partial curve]
CCn1cc(CN2CCC(C(=O)Nc3ccc(Oc4ccccc4F)cc3)CC2)c(C)n1	inconclusive [activator, full curve, poor fit]
COc1ccc([C@]2(C(C)C)ON(c3ccccc3C(F)(F)F)C2=O)cc1	inconclusive [activator, single point]
Cc1cc(C)c2cc3c(N)c(C(=O)N4CCOCC4)sc3nc2c1	inactive
CC(C)C[C@H](NC(=O)c1[nH]cnc1C(=O)N[C@@H](C)c1ccccc1)C(=O)OC(C)(C)C	inactive
Cc1ncoc1C(=O)Nc1ncc([N+](=O)[O-])s1	inconclusive [activator, partial curve, poor fit]
CNS(=O)(=O)c1ccc(NC(=O)c2csc(C)c2)cc1	inactive
Cc1ccc(OC(C)C(=O)Nc2cc(C)on2)cc1 (centres undefined)	inactive
COc1cccc(/C=N/NC(=O)C(=O)N2CCCC2)c1O	inconclusive [activator, partial curve]
C/C(CC(=O)N1CCCC1)=N\NC(=O)c1cc2ccccc2cc1O	inconclusive [activator, single point]
COc1ccc(C2CC2C(=O)c2ccccn2)cc1 (centres undefined)	inconclusive [activator, partial curve, poor fit]
O=C(c1cc2cc(F)ccc2[nH]1)N1CCC(Cc2ccccc2)CC1	inactive
O=C(C1=C(O)C(=O)N(Cc2ccco2)C1c1cccnc1)c1cc2ccccc2o1 (centres undefined)	inactive
O=C(COC(=O)c1cccnc1Cl)Nc1ccc2c(c1)OCCO2	inactive
C/C(=N\Nc1ccc(C(=O)O)cc1)c1ccc(-n2ccnc2)cc1	inactive

SMILES	Potency
O=C(OCC(=O)N1CCCCCC1)c1cccc(Cl)c1	inconclusive [activator, full curve, poor fit]
O=C(/C=C/c1ccccc1)Nc1ccc2c(c1)OCCO2	inactive
Cc1ccc(NC(=S)NC(=O)C2CC2)c(C)c1	inconclusive [activator, full curve]
CCc1nonc1NC(=O)c1oc2ccc(F)cc2c1C	inconclusive [activator, single point]
Cc1cc(C)n(CCCN2CCC(C(=O)Nc3cccc(-c4cccc(F)c4)c3)CC2)n1	inconclusive [activator, partial curve, poor fit]
Cc1ccc2nc(-c3ccc(N4C(=O)CC(N5CCC(C(N)=O)CC5)C4=O)cc3)sc2c1 (centres undefined)	inconclusive [activator, single point]
CCOc1cccc(C(=O)NC2CCCCC2)c1	inconclusive [activator, partial curve, poor fit]
CCc1ccc(NC(=O)C(=O)N/N=C(\C)CC(=O)Nc2ccccn2)cc1	inconclusive [activator, partial curve, poor fit]
Cc1onc(-c2ccccc2)c1NC(=O)N(CCC(=O)O)Cc1ccccc1	inactive
Cc1ccc2[nH]c(C(=O)Nc3ccc(F)cc3)cc2c1	inconclusive [activator, partial curve, poor fit]
CC(=O)c1cccc(NS(=O)(=O)N(C)C)c1	inconclusive [activator, partial curve, poor fit]
O=C(NCc1ccco1)c1noc2c1CCCCC2	inconclusive [activator, single point]
O=C1NC(=S)CN1c1ccccc1	inactive
Cn1ccnc1COc1ccc(C=O)cc1	inconclusive [activator, partial curve, poor fit]
CCCOC(=O)c1ccc(NC(=O)C2C3CCC(C3)C2C(=O)O)cc1 (centres undefined)	inconclusive [activator, partial curve, poor fit]
S=C1NCN(Cc2ccco2)CN1CCc1ccccc1	inactive
Cn1c(C(=O)NCc2cccs2)cc2oc3ccccc3c21	inactive
CCCOC(=O)/C(=C\c1ccc([N+](=O)[O-])o1)NC(=O)c1ccccc1	inconclusive [activator, full curve, poor fit]
Fc1ccc(/C=N/n2c(C3CCCCC3)n[nH]c2=S)cc1	inconclusive [activator, partial curve, poor fit]
O=C1/C(=C/c2ccco2)Cc2ccccc21	inconclusive [activator, partial curve, poor fit]
CCn1c(-c2csc3ccccc23)n[nH]c1=S	inactive
N#Cc1cc2c(nc1SCC1COc3ccccc3O1)CCC2 (centres undefined)	inconclusive [activator, partial curve, poor fit]
COc1ccc(CCNC(=O)c2[nH]c(C)c(C(C)=O)c2C)cc1OC	inactive
CSC(=S)N/N=C/c1ccccc1	inactive
